The data set relates to HepG2 cells. The format is cell-based. On the procedure:
Two different compound exposure scenarios were performed: a single exposure in 2D and a 4-day repeated exposure in 3D. A schematic overview of the tested exposure scenarios for each HepG2 model has been depicted in Figure 1. For the single exposure scenario in 2D, medium was replaced by freshly diluted compound in medium 24 h post seeding. DDRs were monitored after 24, 48 and 72 h by live cell confocal imaging (Figure 1A and B). For the 4-day repeated exposure scenario in 3D, each day medium was replaced by freshly diluted compound in medium for four consecutive days (Figure 1C and D). The imaging was started 24 h after the last exposure. For both scenarios, five compounds in eight concentrations were tested. DMSO, PBS or ultrapure H2O were used as solvent controls. The ATP-lite luminescence kit (Perkin Elmer) was used according to supplier’s protocol to measure cell viability. Measurements were performed 72 h or 24 h post single or repeated exposure, respectively. Absolute IC50 values have been calculated over the ATP-lite data by determining the intersect of the fitted concentration–response curve with the 50% viability baseline via GraphPad prism 8.1.1.
Prior to imaging, cells were stained with Hoechst 33342 at a concentration of 0.1 µg/ml to visualise the nuclei. To examine compound-induced cell death using confocal microscopy, propidium iodide (PI) was added during all compound exposures at a concentration of 100 µM to stain for necrotic or late apoptotic cells. The induction of GFP intensities and PI were monitored with a Nikon Eclipse Ti confocal laser microscope (Nikon, Amsterdam, The Netherlands), equipped with lasers at wavelengths 408, 488 and 561, an automated stage and perfect focus system at 37°C and 5% CO2. Images for 2D cultures were acquired with a Nikon 20x Dry Plan Apo VC NA 0.75 objective. Images for 3D cultures were acquired with a Nikon 10x Dry Plan Fluor NA 0.3 objective. For each condition, a z-stack of 9–11 images was generated with a step size of 30 µm.
For 2D cultures, image quantification was performed with Cell Profiler version 2.2.0 (Broad Institute, Cambridge, USA) using modules described previously ([14]). Nuclei segmentation based on Hoechst was done in ImageJ using an in-house developed macro based on the watershed masked clustering algorithm ([27]). Segmentation of the cytoplasmic area was done using the Distance N method expanding the edges of nuclear objects with six pixels followed by subtraction of the nuclear area. p21 and p53-GFP intensities were measured in the nuclei and BTG2-GFP in the cytoplasm. The PI-positive cells were identified by an overlay of the PI signal and the segmented nuclei. A cell was considered positive when there was at least 10% overlap. Results were stored in HDF5 format ([28]). To extract summarised data for further analysis and visualisation, in-house developed R-scripts were used in RStudio (version 1.0.153) (Boston, MA, USA) ([29–31]). The mean nuclear and cytoplasmic intensities of all measured single cells and the fraction of PI-positive cells for each image were extracted as output from the HDF5 files.
For 3D cultures, the NIS Elements analysis software (Nikon, Amsterdam, The Netherlands) was used to quantify the GFP intensity and PI-positive area within spheroids. […] The GFP intensity was measured in the spheroids and the PI-positive area within spheroids was determined by the overlap of PI signal within spheroids. […]

The structures appear in SMILES notation. Where two headings read alike, the source gives them in different places.

`Cc1c(-c2ccc(-c3ccccc3F)cc2)nc2ccc(F)cc2c1C(=O)O` [Brequinar]: the cell death result (HepG2 2D, normal DMEM medium) is on record as “no cell death”. Also, the “concentration at which cell death was induced” value (HepG2 3D in both medium types or 2D with AAGLY medium, highest concentration) was 100 µM. For the molecule `N.N.[Cl][Pt][Cl]` [Cisplatin], the cell death result (HepG2 grown in AAGLY medium) is “No cell death”. The “concentration at which cell death was observed” value (HepG2 in normal DMEM medium, 2D or 3D) is “higher than 10 µM”.

Turning to `Nc1ccn([C@@H]2O[C@H](CO)[C@@H](O)C2(F)F)c(=O)n1` [Gemcitabine], the cell death induction result is listed as “did not show cell death induction”.

The values are drawn from paper PMC9071099, “Towards an advanced testing strategy for genotoxicity using image-based 2D and 3D HepG2 DNA damage response fluorescent protein reporters” (Mutagenesis, 2021).
